Measurements: ChEMBL document CHEMBL4888484, “Replenishing the malaria drug discovery pipeline: Screening and hit evaluation of the MMV Hit Generation Library 1 (HGL1) against asexual blood stage Plasmodium falciparum ,using a nano luciferase reporter read-out” (2022)
Out of some 150,000 compounds screened, about 540 (0.36%) showed an effect of 50% or more. The list shows a part of the results.

System: Plasmodium falciparum
Assay: Primary screen in NF54 nanoGlo assay, in single point, at 2uM, 72h; a lower Z score goes with more inhibition
Assay type: functional, Erythrocyte
Settings: timepoint 72 hour

Q: With Cc1c(CNC2CCC(C)CC2)c(C(=O)O)c(C)n1Cc1cccc(Cl)c1 (configuration not stated) as the compound, how does the “% Inhibition” value read?
A: The value was -5%.

Q: And the Z score?
A: Its Z score is 0.89.

Q: Which “% Inhibition” value does the source give for CN(C)c1noc(-c2coc(C3CCC3)n2)n1 here?
A: Its value is 4%.

Q: What about the Z score of the same compound?
A: Its Z score is -0.69.

Q: How did the “% Inhibition” value turn out when O=C([C@H]1CCc2cncn2C1)N(Cc1ccccc1F)C1CCC1 was run?
A: The value was 6%.

Q: What about the Z score of the same compound?
A: Its Z score is -0.65.

Q: O=C(NCCc1ccccn1)c1cn2c(n1)CC[C@H](c1cc(C(F)(F)F)cc(C(F)(F)F)c1)C2 was tested. Which “% Inhibition” value did it give?
A: Its value is 3%.

Q: What about the Z score of the same compound?
A: The Z score was -0.47.

Q: What does the source list for O=C(NCCCOCC1CCOC1)N1CCCC2CCCC21 (configuration not stated)?
A: % Inhibition: -4%; Z score: 0.48

Q: CCC(CC)C(=O)N1CC[C@@](C)(O)[C@@H](NC(=O)c2ccccc2)[C@@H]1c1cccs1 was tested. Which “% Inhibition” value did it give?
A: Its value is 3%.

Q: And the Z score?
A: Its Z score is -0.46.

Q: How did the “% Inhibition” value turn out when COc1ccc(C(=O)Nc2ccc3c(c2)N(C(=O)c2ccccc2)CCC3)cc1 was run?
A: The value was -4%.

Q: And the Z score?
A: The Z score was 0.43.

Q: Which results are given for CCN1CCN(C2CCN(Cc3c[nH]c4ccccc34)CC2)CC1?
A: % Inhibition: 5%; Z score: -0.83

Q: With N#CC1CCN(C(=O)Nc2ccc(-n3ncc4ccccc43)cc2)CC1 as the compound, how does the “% Inhibition” value read?
A: The value was -1%.

Q: And the Z score?
A: Its Z score is 0.1.

Q: Which “% Inhibition” value does the source give for CCn1c(CN2CCN(CCOC)C(=O)C2)nc2ccccc21 here?
A: The value was -8%.

Q: What about the Z score of the same compound?
A: Its Z score is 1.03.

Q: How did the “% Inhibition” value turn out when Cn1c(CN2CC[C@H](NC(=O)c3cccnc3)[C@@H](O)C2)nc2ccccc21 was run?
A: The value was 2%.

Q: And the Z score?
A: Its Z score is -0.31.

Q: N#Cc1cccc(C(=O)N2C[C@@H]3CC[C@H]2CN(C(=O)C2CCC2)C3)c1 was tested. Which “% Inhibition” value did it give?
A: The value was 0%.

Q: What about the Z score of the same compound?
A: The Z score was 0.02.

Q: What does the source list for c1ccc(-c2nc3c(c(N4Cc5ccccc5C4)n2)CCNC3)nc1?
A: % Inhibition: -4%; Z score: 0.52

Q: For CCc1ccc(-c2cn3c4ccccc4nc3n2CCN2CCCC2)cc1, which “% Inhibition” value is on record?
A: Its value is -46%.

Q: What about the Z score of the same compound?
A: Its Z score is 5.35.

Q: CC(C)Oc1ccc(C(=O)N[C@H]2C[C@@](C)(O)C2)c(Cl)c1 was tested. Which “% Inhibition” value did it give?
A: Its value is -6%.

Q: What about the Z score of the same compound?
A: Its Z score is 0.85.

Q: Which “% Inhibition” value does the source give for Cc1cnn(-c2ccc(-c3noc(C4C[C@H]5C[C@@H](N)[C@H]5C4)n3)cc2)c1 (some centres not stated) here?
A: The value was 6%.

Q: And the Z score?
A: Its Z score is -1.1.

Q: How did the “% Inhibition” value turn out when c1ccc2oc(-c3ccn(Cc4nc(CC5CC5)no4)n3)cc2c1 was run?
A: Its value is -4%.

Q: And the Z score?
A: The Z score was 0.79.

Q: What does the source list for CC1CC(C)CC(C(=O)NCC2(NC(=O)Cc3ccco3)CCCCC2)C1 (configuration not stated)?
A: % Inhibition: -12%; Z score: 2.32

Q: How did the “% Inhibition” value turn out when CCN1C[C@@H](CN(C)Cc2nc(C3(c4ccc(C)cc4)CCCC3)no2)CC1=O was run?
A: Its value is 5%.

Q: And the Z score?
A: Its Z score is -0.95.

Q: What does the source list for COc1cc(C(=O)N2CCC(C(=O)N3CCCCCC3)CC2)cc(OC)c1OCc1ccccc1?
A: % Inhibition: -10%; Z score: 1.35

Q: With O=C(Cc1ccsc1)NC[C@H](O)c1ccc(-c2ccsc2)s1 as the compound, how does the “% Inhibition” value read?
A: The value was 6%.

Q: And the Z score?
A: The Z score was -0.81.

Q: Which results are given for COc1ccc(C(=O)N2CC(N3CCCC3)C2)cc1F?
A: % Inhibition: -9%; Z score: 1.08

Q: With NC(=O)c1nc(-c2ccccc2)n2c1CCN(C(=O)Cn1cccn1)CC2 as the compound, how does the “% Inhibition” value read?
A: Its value is -8%.

Q: What about the Z score of the same compound?
A: The Z score was 1.06.

Q: For CCN(C(=O)c1cncn1C)[C@@H](C)Cc1ccsc1, which “% Inhibition” value is on record?
A: The value was 0%.

Q: What about the Z score of the same compound?
A: The Z score was 0.04.

Q: Which “% Inhibition” value does the source give for CC[C@H](NC(=O)c1cccnc1OC)C1CCOCC1 here?
A: Its value is -4%.

Q: What about the Z score of the same compound?
A: The Z score was 0.85.

Q: Which results are given for O=C(c1ccncc1)N1CC[C@H]2[C@@H](CCCN2Cc2cc(F)c(F)c(F)c2)C1?
A: % Inhibition: 2%; Z score: -0.23

Q: What does the source list for COc1ccc(-c2nnc(-c3ccc(-n4ccnc4)nc3)o2)cc1F?
A: % Inhibition: -16%; Z score: 1.88

Q: Which results are given for CCc1cnc(C)nc1N1CCC(NCCCc2ccc(Cl)cc2)CC1?
A: % Inhibition: -17%; Z score: 2.16

Q: How did the “% Inhibition” value turn out when COc1ccccc1CNC(=O)c1cnn(-c2ncccc2-c2nc(C)no2)c1C was run?
A: Its value is -10%.

Q: And the Z score?
A: The Z score was 1.64.

Q: Which “% Inhibition” value does the source give for Cc1cc(-c2ccc(C(=O)N(C)C[C@H]3CCCCN3C)cc2)cs1 here?
A: The value was -14%.

Q: And the Z score?
A: The Z score was 1.38.

Q: For CCc1cc(CC)n(C[C@H](O)C2(O)CCC2)n1, which “% Inhibition” value is on record?
A: The value was 4%.

Q: What about the Z score of the same compound?
A: Its Z score is -0.69.

Q: With O=C(Nc1ccccc1)c1cccc(CN2CCc3ccccc3C2)c1 as the compound, how does the “% Inhibition” value read?
A: Its value is -4%.

Q: And the Z score?
A: Its Z score is 0.61.

Q: O=C(CN1CCOC2CCCCC21)c1c[nH]c2ccccc12 (configuration not stated) was tested. Which “% Inhibition” value did it give?
A: The value was -13%.

Q: What about the Z score of the same compound?
A: The Z score was 1.79.

Q: How did the “% Inhibition” value turn out when CC(C)CN1CCN(C(=O)[C@H](C)c2ccc(Cl)s2)CC1=O was run?
A: Its value is -9%.

Q: And the Z score?
A: Its Z score is 1.69.

Q: How did the “% Inhibition” value turn out when O=C(O)c1cc(C2CCN(C(=O)c3cccc4c3CCC4)CC2)no1 was run?
A: The value was 2%.

Q: What about the Z score of the same compound?
A: The Z score was -0.35.

Q: Which results are given for CC(=O)Nc1c(C)ccc(NCCCOCCc2ccccc2)c1C?
A: % Inhibition: 34%; Z score: -3.8

Q: With Cc1nn(C)c(C)c1S(=O)(=O)N1CCC[C@H](C(=O)N2CCCn3nc(-c4ccc(F)cc4)cc3C2)C1 as the compound, how does the “% Inhibition” value read?
A: The value was 7%.

Q: And the Z score?
A: The Z score was -1.17.

Q: With COc1cc(-c2nc(=O)c(CCC(=O)NCC(C)C)n[nH]2)ccc1OCC1CCC1 as the compound, how does the “% Inhibition” value read?
A: Its value is 9%.

Q: And the Z score?
A: The Z score was -1.15.

Q: What does the source list for Cc1cnccc1CCNC(=O)NC1(C(F)(F)F)CCC1?
A: % Inhibition: -17%; Z score: 3.15

Q: How did the “% Inhibition” value turn out when Cc1cc(-c2c(-c3ccccc3)ncn2CCc2ccc(O)cc2)[nH]n1 was run?
A: Its value is 8%.

Q: What about the Z score of the same compound?
A: Its Z score is -1.12.

Q: What does the source list for Cc1ccc(CNC(=O)CN2C(=O)CCCc3cc(S(=O)(=O)N4CCCC4)ccc32)cc1?
A: % Inhibition: -2%; Z score: 0.27
